T1: UNK ZnF1-6 (called full-length) (human, UniProt Q9C0B0 30-357)
T1 sequence: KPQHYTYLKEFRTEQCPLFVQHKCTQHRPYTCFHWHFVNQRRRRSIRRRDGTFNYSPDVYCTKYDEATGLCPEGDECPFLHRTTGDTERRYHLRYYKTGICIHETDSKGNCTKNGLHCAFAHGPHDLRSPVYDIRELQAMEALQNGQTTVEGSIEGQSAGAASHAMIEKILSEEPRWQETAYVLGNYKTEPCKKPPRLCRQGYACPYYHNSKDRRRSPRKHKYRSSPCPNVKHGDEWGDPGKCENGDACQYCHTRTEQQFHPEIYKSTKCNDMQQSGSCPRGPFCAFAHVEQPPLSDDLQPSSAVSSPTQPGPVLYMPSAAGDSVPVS

B1: chr1:162523450:162523604:+|3pUTR|ENSG00000152332|msi1|FALSE|unique (ssRNA)
RNA: GGGAGUUCUACAGUCCGACGAUCAGACUAAGUUGUGCCAGAUGUAAAUCAACCCCUCUUUUAGUUUACUUUAGACUUUGUAUUAGCUCAUCUUUUUUGUAGUAAAUCUAUAGUUUUAAGGUUUCUCAAGAUGUGGCUCUACCUCAACAGAGGAUUGAGCAUCA
B2: chr5:160402147:160402258:-|3pUTR|ENSG00000164609|unk|FALSE|unique (ssRNA)
RNA: GGGAGUUCUACAGUCCGACGAUCAUGGUUUACAUUACCGUUUGUUUUCAUUGUGAUUGCCCCUAUGUAACAAUCAUGAAUAUUAGAUUUUUUAAAUUGUAGAAUAUCCUAAUAUUUAUAGCCAGCAGCUGUUACUUUGUUUGUCAACAGAGGAUUGAGCAUCA
B3: chrX:74588119:74588220:-|3pUTR|ENSG00000131263|msi1|total|mutant (ssRNA)
RNA: GGGAGUUCUACAGUCCGACGAUCUCCGAAAAUGCUGGGAUUACAGGCGUGAGCCACCAUGUCCAGCCAAAGUUGAGGUUUAUCCGUACUAUCCGAAACAAAAUUGAGCAAGUUAAGUUAAAAGUUUGCUGACUUUGUAUCAACCAACAGAGGAUUGAGCAUCA
B4: chr15:48342169:48342270:+|3pUTR|ENSG00000128951|msi1_unk|FALSE|overlapping (ssRNA)
RNA: GGGAGUUCUACAGUCCGACGAUCAAAAAAAAAAAAAGUUUUUGCUUCAAGUGUUUUGGUGUUUUGCACUUCUGUAAACUUACUAGCUUUACCUUCUAAAAGUACUGCAUUUUUUACUUUUUUUUAUGAUCAAGGAAAAGAUCACAACAGAGGAUUGAGCAUCA
B5: chr12:98549714:98549829:+|3pUTR|ENSG00000120802|unk|FALSE|unique (ssRNA)
RNA: GGGAGUUCUACAGUCCGACGAUCGAAGAUGUAUAUUUAGACCAGCACACAAUUUUGAUUUCAAUUAGCCUUAUUCUAAUAUUUAGCUUUUAGAUCUUUCAUACACAUUUUCACGUACUUUGCAAUUGAGACCAGAAAGACUUGCAACAGAGGAUUGAGCAUCA
B6: chr1:24654915:24655033:+|CDS|ENSG00000133226|unk|FALSE|unique (ssRNA)
RNA: GGGAGUUCUACAGUCCGACGAUCUCACGGUCACCACCAAAGAAGCCUCCCAAGAGGACAUCCAGCCCCCCUCGGAAAACUCGUAGGUUAUCUCCUUCAGCAAGUCCUCCAAGGCGAAGGCACAGGCCAUCACCUCCUGCAACUCAACAGAGGAUUGAGCAUCA
B7: chr3:98797553:98797658:-|3pUTR|ENSG00000057019|msi1|FALSE|unique (ssRNA)
RNA: GGGAGUUCUACAGUCCGACGAUCAUUUCAUUCAUUGAAGAAUCAAUACAUAUUUUGUUUCAAAAUGUUUGAAACAAAAGACAUAGAUGGUAGACUUUUAUUAAAACAUAUAUGGAUGUGGAAAGCACAUAUAUUAAUGCAGUCCAACAGAGGAUUGAGCAUCA
B8: chr17:29548703:29548809:+|3pUTR|ENSG00000160551|unk|total|mutant (ssRNA)
RNA: GGGAGUUCUACAGUCCGACGAUCAGCACUUGUGAGUGAAAAAUCAUGUAAUUAUCUGUAAAUAUGCCGCUAACAAAUUGACCCCGUUUCUGUAUUUUUUUGUUUUUGUACUAAAGUUUACCGGUCUGUGCCAGCCCGAGAGAACAACAGAGGAUUGAGCAUCA
B9: chr10:30336814:30336915:-|CDS|ENSG00000107951|unk|FALSE|unique (ssRNA)
RNA: GGGAGUUCUACAGUCCGACGAUCGUAUUUUCCAGACUGCAUAGUCAGACCCUUUGGCUCCUCAGUCAACACUUUUGGGAAGUUAGGAUGUGAUUUGGACAUGUUUUUGGAUCUAGAUGAAACCAGAAACCUCAGCGCUCACAACAACAGAGGAUUGAGCAUCA
B10: chr8:100258838:100258944:-|CDS|ENSG00000034677|unk|FALSE|unique (ssRNA)
RNA: GGGAGUUCUACAGUCCGACGAUCAGUGAAUUUGAGGCUCCAUCCCUCAGUGACAGUAUGCCUUCUGUAGCAGAUUCUCACUCUAGUCAUUUUUCUGAAUUUAGUUGUUCUGACCUAGAAAGCAUGAAAACUUCUUGUAGUCAUCAACAGAGGAUUGAGCAUCA
B11: ENSG00000198663:stop:overlap|stop_codon|ENSG00000198663|stop_codon|NA|stop_codon (ssRNA)
RNA: GGGAGUUCUACAGUCCGACGAUCUUAUAGCCAGAGGGGUCCAGCCUUUGGUCAUCUGCGAUGGAACCGCUUUCUCAGAACUGUAGGAAAUAGAACUGUGCACAGGAACAGCUUCCAGAGCCGAAAACCAGGUUGAAAGGGGAACAACAGAGGAUUGAGCAUCA
B12: ENSG00000139350:stop:overlap|stop_codon|ENSG00000139350|stop_codon|NA|stop_codon (ssRNA)
RNA: GGGAGUUCUACAGUCCGACGAUCAUUUAUCUAGUACUCCUUUUGGCCAUGGUAGUAACCAGGCUCUCCAAUCCAGUGUUGAAUAGAAGUGAUGAUAGUGGACAUCUUUAUUUUGUCCCCAAAUUCUGGAAGAAGCAUUCAAUUCAACAGAGGAUUGAGCAUCA
B13: chr2:74214837:74214938:+|3pUTR|ENSG00000065911|msi1_unk|total|mutant (ssRNA)
RNA: GGGAGUUCUACAGUCCGACGAUCCUGUCCUUUUGAGGCUCCGUCAGUUUAUUGGGAAAAUGUUCCGGAUUAUUCCUUGCUAUCCGUACUCAUUUUAUGUAUGUUACCCUUCAGUAAGUUCUCCCCAUUUCCGUUUUCCCGGACCAACAGAGGAUUGAGCAUCA
B14: chr2:42282796:42282970:+|CDS|ENSG00000143924|unk|FALSE|unique (ssRNA)
RNA: GGGAGUUCUACAGUCCGACGAUCAUAUGGUUAUCGAGGAAAGGACUGUAGAGCUAAUGUUUACCUUCUUCCGACCGGGAAAAUAGUUUAUUUCAUUGCAUCAGUAGUAGUACUAUUUAAUUAUGAGGAGAGAACUCAGCGACACAACAGAGGAUUGAGCAUCA
B15: chr12:100341478:100341579:+|3pUTR|ENSG00000136021|unk|total|mutant (ssRNA)
RNA: GGGAGUUCUACAGUCCGACGAUCCUAUUCUCCUAUUGCUAAAUGUGUGAUAUACCGAGAGGAUGUAUAAAAGGAAAUGGAAACCGACUAUGUACUUGUCUGGUUUUUGUUUGUUUUUAUUUUGGAAUGCUUAUAAGCCUCCUUCAACAGAGGAUUGAGCAUCA
B16: ENSG00000136451:be:win_3051|3pUTR|ENSG00000136451|bound_else_gene|NA|bound_elsewhere_windowed (ssRNA)
RNA: GGGAGUUCUACAGUCCGACGAUCUGUGUUAAUCUUGCAGAAUGUUUGCAGGACUGACUAUCAAACUGGAUGAUUUCCAUUUAUACCCUACUGUGUCAGUUCAAGCAUCAAAAUACCUUGCAUCUGAGACAGACUUCCUACAUCCAACAGAGGAUUGAGCAUCA
B17: chr11:103061782:103061883:-|3pUTR|ENSG00000137692|unk|FALSE|unique (ssRNA)
RNA: GGGAGUUCUACAGUCCGACGAUCAAGACUGUUGGCCUUGACUUCUGGGAUAAUGAUUUGCUGAUGCAGCUAAUAAACAUUUCUAGGUAUUGGAAAAAUGCUCCUACUUUUAGCUCUGGGUUUCUAUAAAAGCUGCCAAGGUCUCAACAGAGGAUUGAGCAUCA
B18: chr15:34980028:34980129:-|3pUTR|ENSG00000198146|msi1|total|mutant (ssRNA)
RNA: GGGAGUUCUACAGUCCGACGAUCGGUUCUGUUAUUUAAGCCUGUUCUAAGUUUGAUCAAAUGGCAAUGACCCGGUCCCGUUUCCGUUUUUAUUUUUGCAGGAGUCUAUUGCUAAAGAAUUUUAUUUUGAUGCUUGUUAAAUUUCAACAGAGGAUUGAGCAUCA
B19: ENSG00000140939:stop:overlap|stop_codon|ENSG00000140939|stop_codon|NA|stop_codon (ssRNA)
RNA: GGGAGUUCUACAGUCCGACGAUCCGAGUCCGAAGAUUCCUGAAGGCCAGAGCUCUGACAGGCGGUGCCCCGCCCAUGCUGGAUAGGACCUGGGAUGCUGCUGGAGCUGAAUCGGAUGCCACCAAGGCUCGGUCCAGCCCAGUACAACAGAGGAUUGAGCAUCA
B20: chr1:88684422:88684524:+|5pUTR|ENSG00000065243|unk|FALSE|unique (ssRNA)
RNA: GGGAGUUCUACAGUCCGACGAUCUCGAUGAACCGGACGGAAUAAGCCGCGCCUCCAGCAGGGGCUGCGCCUCCAUGAAUCCCUAGUUGUUUUUUUUUUUUUCUUUCUCUCCCCUCUCCUCACCCCCACCCCGAGCCCCGUCCCCAACAGAGGAUUGAGCAUCA
B21: chr15:59095394:59095499:+|3pUTR|ENSG00000157450|unk|total|mutant (ssRNA)
RNA: GGGAGUUCUACAGUCCGACGAUCUAAAUACCAUCCUUAAUACUGGGAACAGAAUACAACCCAUAUAAAUCAGAUGCAGGUGGCCGUCACAUCACCAGAGUGAUCAGUAUAAAUUUUCUUGGUGUAUCCUUUUCCUUUCAACACCAACAGAGGAUUGAGCAUCA
B22: chr15:38484694:38484795:+|3pUTR|ENSG00000171262|unk|total|mutant (ssRNA)
RNA: GGGAGUUCUACAGUCCGACGAUCAUCCGAAACCGUGUUCCAAAUAACAUACUUGAAUAUCAUCUUUGAAGUAAACACCAUGUCCGACUCCCUGGUGAUACCACUCUUGAAUUGGUUAAUAUGUAAGAACAUUGUUUUUUAUUACAACAGAGGAUUGAGCAUCA

This is one part of the list.

For this experiment, the target named is T1, UNK ZnF1-6 (called full-length). In words: nsRBNS (natural sequence RNA bind-n-seq); RBNS binding buffer (assumed for nsRBNS): 25 mM Tris pH 7.5, 150 mM KCl, 3 mM MgCl2, 0.01% Triton X-100, 500 ug/ml BSA, 20 U/ml SUPERase-In, 4 C; UNK is unkempt and MSI1 is Musashi-1; names of the RNAs are library labels; protein concentration not given here; high values mean tight binding.
With B1, the binding signal was determined as 58.2 enrichment R.
Regarding B2, the binding signal stood at 5.04 enrichment R.
The molecule B3 displayed a binding signal of 0.335 enrichment R.
The result for B4 reads 0.399 enrichment R; that for B5, 32.9 enrichment R.
The result for B6 reads 0.707 enrichment R; that for B7, 1.11 enrichment R; that for B8, 0.49 enrichment R.
In the case of B9 it was 0.644 enrichment R.
B10 returned a binding signal of 13.2 enrichment R.
In the case of B11 it was 0.402 enrichment R; in that of B12, 1.19 enrichment R.
B13 registered a binding signal of 0.338 enrichment R.
In the case of B14 it was 3.02 enrichment R; in that of B15, 0.311 enrichment R; in that of B16, 0.215 enrichment R.
In the case of B17 it was 0.656 enrichment R.
With B18, the binding signal came out at 0.612 enrichment R.
In the case of B19 it was 0.585 enrichment R; in that of B20, 39 enrichment R; in that of B21, 0.366 enrichment R.
In the case of B22 it was 0.409 enrichment R.

These data come from paper PMC12136788.
